Laboratory results taken from PubChem BioAssay AID1745845 (National Center for Advancing Translational Sciences (NCATS), 2022).
Out of some 360,000 compounds screened, about 2,600 (0.72%) were called active. This list was built around the results that the source calls inconclusive (neither active nor inactive); the mix of calls is not that of the screen. The call rests on the fitted dose curve; in most records, active means well fitted inhibition curve with a large enough effect; inconclusive means small, poorly fitted or top-dose-only effect; inactive means no such curve, though single readings can be large or run the other way. Potencies of inconclusive entries are doubtful fits and often do not repeat.

Test: Primary qHTS for Inhibitors of ATXN expression; further: nearly all actives have a fitted effect of over 55% in size
Conditions: HEK-293 ATXN2-luciferase reporter, luminescence, 24 h; series mostly up to 57 µM
Summary of the method: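 qHTS (up to 57 uM final) was run with 24 h compound exposure of reporter cells at 37 °C. Each well was multiplexed: SteadyGlo luminescence measured ATXN2-luciferase expression after a fluorogenic Gly-Phe-AFC viability readout (25 uM final).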
Potency means the concentration at half of the fitted maximal effect; tags describe the fitted curve by direction and shape.

**Q.** For CCN1/C(=C/c2ccc3ccccc3[n+]2CCCS(=O)(=O)[O-])C=Cc2cc(C)ccc21, which Potency is on record?
**A.** inactive

**Q.** For Cc1ccc(OCC(=O)Nc2ccc3c(c2)OCCO3)cc1C, which Potency is on record?
**A.** inactive

**Q.** For CCn1cc(CN2CCCC(C(=O)c3ccc(-c4ccccc4)cc3)C2)cn1 (stereo unspecified), which Potency is on record?
**A.** inconclusive: 10 µM [inhibitor, partial curve, poor fit]

**Q.** For COc1ccc(/C=C2\SC(=N)N(c3nccs3)C2=O)cc1OC, which Potency is on record?
**A.** active: 11.2 µM

**Q.** Which Potency does the source give for O=C(c1n[nH]c2ccccc12)N1CCN(S(=O)(=O)c2ccc(Cl)cc2)CC1 here?
**A.** inactive

**Q.** For COc1ccc(OC)c(NC(=O)CCc2c(C)nc3c(-c4ccccc4)c(C)nn3c2C)c1, which Potency is on record?
**A.** inconclusive: 35.5 µM [inhibitor, single point]

**Q.** For CCc1cccc(NC(=O)c2ccc3c(=O)n4nc(Nc5ccccc5OC)sc4nc3c2)c1, which Potency is on record?
**A.** inconclusive: 0.794 µM [inhibitor, full curve, poor fit]

**Q.** For Cc1cc(C)n(-c2nc(NCCCN(C)C)c3c4c(sc3n2)CCCC4)n1, which Potency is on record?
**A.** active: 22.4 µM

**Q.** Which Potency does the source give for COC(=O)N1[C@H](C)C=C[C@]1(Cc1ccccc1)C(=O)OC here?
**A.** inactive

**Q.** Which Potency does the source give for O=C(CCS(=O)(=O)c1ccccc1)N(CCCN1CCOCC1)c1nc2ccccc2s1 here?
**A.** inconclusive: 39.8 µM [inhibitor, single point]

**Q.** With COc1ccc(/C=N/NC(=O)c2nnn(-c3nonc3N)c2-c2cccc(OC)c2)cc1 as the compound, how does the Potency read?
**A.** inactive

**Q.** Which Potency does the source give for CCCn1c(=N)n(CC(=O)c2ccc(Cl)c(Cl)c2)c2ccccc21 here?
**A.** inconclusive: 25.1 µM [inhibitor, single point]

**Q.** Which Potency does the source give for COc1ccc(CNC(=O)C(=O)NCC(c2cccnc2)N2CCN(c3ccccc3F)CC2)cc1 (stereo unspecified) here?
**A.** inconclusive: 15.8 µM [inhibitor, partial curve, poor fit]

**Q.** With COCCn1c(C)cc(C(=O)COC(=O)c2ccc[nH]c2=O)c1C as the compound, how does the Potency read?
**A.** inactive

**Q.** For O[C@@H]1CN(CC2CCCCC2)[C@@H](c2ccc(Cl)cc2)C[C@H]1n1cc(C2CC2)nn1, which Potency is on record?
**A.** inconclusive: 39.8 µM [inhibitor, single point]

**Q.** Which Potency does the source give for C=Cc1c(C)c2cc3nc(cc4[nH]c(cc5nc(cc1[nH]2)C(C)=C5CCC(=O)O)c(CCC(=O)OC)c4C)[C@@]1(C)C3=CC=C(C(=O)OC)[C@H]1C(=O)OC here?
**A.** inconclusive: 0.968 µM [inhibitor, full curve, poor fit]

**Q.** Which Potency does the source give for CC(=O)Nc1nc(C)c(C(C)=O)s1 here?
**A.** inactive

**Q.** With O=C(Nc1ccc2oc(=O)ccc2c1)c1ccc(-c2cccc(Cl)c2)o1 as the compound, how does the Potency read?
**A.** inconclusive: 31.6 µM [inhibitor, partial curve, poor fit]

**Q.** Which Potency does the source give for N#C/C(=N\Nc1ccc(Cl)c(Cl)c1)C(=O)C1CC1 here?
**A.** inactive

**Q.** For CCOC(=O)c1ccc(NC(=O)c2c(N)n(Cc3ccccc3)c(=O)[nH]c2=O)cc1, which Potency is on record?
**A.** inconclusive: 2.51 µM [inhibitor, full curve, poor fit]

**Q.** Which Potency does the source give for COc1cccc2sc(Nc3nc(C)c(C(C)=O)s3)nc12 here?
**A.** inconclusive: 39.8 µM [inhibitor, single point]

**Q.** With Oc1ccc(C[C@H]2CNCCN2CCC23CC4CC(CC(C4)C2)C3)cc1 as the compound, how does the Potency read?
**A.** inconclusive: 35.5 µM [inhibitor, single point]

**Q.** For COc1ccc(CCN2C(=O)CSC2=S)cc1OC, which Potency is on record?
**A.** inconclusive: 35.5 µM [inhibitor, single point]

**Q.** Which Potency does the source give for O=C(N/N=C1\C2CN3CCN(C2)CC1(c1ccccc1)C3)c1ccc(F)cc1 here?
**A.** inconclusive: 0.752 µM [inhibitor, partial curve, poor fit]

**Q.** With OCC1(CCCc2ccccc2)CCN(Cc2cnc(N3CCOCC3)s2)CC1 as the compound, how does the Potency read?
**A.** inconclusive: 16.8 µM [inhibitor, partial curve]

**Q.** For COC(=O)C(C)Sc1ccc2nnc(-c3ccc(F)cc3)n2n1 (stereo unspecified), which Potency is on record?
**A.** inactive

**Q.** Which Potency does the source give for O=C(CSc1ccc(Cl)cc1)N/N=C/c1ccc([N+](=O)[O-])o1 here?
**A.** inconclusive: 12.6 µM [inhibitor, partial curve, poor fit]

**Q.** With S=C(NCC1(c2ccccc2)CCCC1)Nc1ccccc1 as the compound, how does the Potency read?
**A.** inconclusive: 7.94 µM [inhibitor, partial curve, poor fit]

**Q.** For O=C(OCc1nnc(-c2ccccc2)o1)c1ccc(Cl)cc1, which Potency is on record?
**A.** inactive

**Q.** With Cc1cc(C(=O)COc2cccc(-n3cnnn3)c2)c(C)n1-c1ccccc1 as the compound, how does the Potency read?
**A.** inactive

**Q.** Which Potency does the source give for COc1ccccc1-n1c(Cc2cccs2)n[nH]c1=S here?
**A.** inactive

**Q.** Which Potency does the source give for O=C(C[n+]1cccc(CNC(=O)c2ccc(OC(F)F)cc2)c1)Nc1cc(C(F)(F)F)ccc1Cl here?
**A.** inactive

**Q.** With Cc1ccc(NC(=O)CSc2nc3ccc(NC(=O)c4ccco4)cc3s2)c(C)c1 as the compound, how does the Potency read?
**A.** inconclusive: 20 µM [inhibitor, partial curve, poor fit]

**Q.** Which Potency does the source give for Cc1ccc(/C=C2\SC(=S)N(CCCC(=O)Nc3cccnc3)C2=O)cc1 here?
**A.** active: 3.55 µM

**Q.** For NNC(=O)c1oc2nc(-c3ccco3)cc(-c3ccco3)c2c1N, which Potency is on record?
**A.** inconclusive: 13.4 µM [inhibitor, partial curve]

**Q.** Which Potency does the source give for COCc1[nH]nc2c1C(C1C=CCCC1)C(C#N)=C(N)O2 (stereo unspecified) here?
**A.** inconclusive: 39.8 µM [inhibitor, partial curve, poor fit]

**Q.** With CCNc1nc(ON=C(C)C)nc(N(C)C)n1 as the compound, how does the Potency read?
**A.** inactive

**Q.** For Cc1cc(C(=O)CSc2nc3ccccc3[nH]2)c(C)n1CC1CCCO1 (stereo unspecified), which Potency is on record?
**A.** inconclusive: 12.6 µM [inhibitor, single point]

**Q.** Which Potency does the source give for O=C(N/N=C/c1cccs1)c1cccc(S(=O)(=O)Nc2ccc(Cl)cc2)c1 here?
**A.** inconclusive: 37.7 µM [inhibitor, single point]

**Q.** With COc1cccc(-c2cc(C(F)(F)F)nc(-n3cc(Cl)cn3)n2)c1 as the compound, how does the Potency read?
**A.** inconclusive: 14.1 µM [inhibitor, partial curve, poor fit]

**Q.** With O=S(=O)(Nc1ccc(N2CCCCC2)cc1)c1ccccc1 as the compound, how does the Potency read?
**A.** inactive

**Q.** Which Potency does the source give for Nc1cc(N)nc(SCC(=O)Nc2ccc3c(c2)OCO3)n1 here?
**A.** inactive

**Q.** For CCCCN1C(=O)C(CC(=O)NC(c2ccccc2)c2ccccc2)CC(C(=O)N(C(C)C)C(C)C)=C1C (stereo unspecified), which Potency is on record?
**A.** inconclusive: 25.1 µM [inhibitor, partial curve, poor fit]

**Q.** Which Potency does the source give for C[C@H](CO)N1C[C@H](C)[C@@H](CN(C)C(=O)Nc2ccc(C(F)(F)F)cc2)Oc2c(NC(=O)Nc3ccccc3)cccc2C1=O here?
**A.** inconclusive: 39.8 µM [inhibitor, single point]

**Q.** Which Potency does the source give for Cc1cc(SCC(=O)N/N=C/c2ccc(O)cc2O)c(C)cc1Br here?
**A.** active: 17.8 µM

**Q.** With CC(=O)Nc1ccc(-c2ccnc3c2CC(C(=O)Nc2cccc(OC(F)(F)F)c2)O3)cc1 (stereo unspecified) as the compound, how does the Potency read?
**A.** inconclusive: 39.8 µM [inhibitor, single point]

**Q.** Which Potency does the source give for CC(C)c1ccc(N=C2N=C(N)c3ccccc32)cc1 here?
**A.** inconclusive: 39.8 µM [inhibitor, single point]

**Q.** With COc1ccc(OC)c(NC(=O)CC2C(=O)NCCN2C(=O)Nc2cccc(Cl)c2)c1 (stereo unspecified) as the compound, how does the Potency read?
**A.** inactive

**Q.** With CC(C)(C)c1ccc(C(=O)CC(Sc2ccc(Cl)cc2)C(=O)O)cc1 (stereo unspecified) as the compound, how does the Potency read?
**A.** inconclusive: 35.5 µM [inhibitor, single point]

**Q.** For COc1ccc(CC(=O)Nc2ccc(OC)c(NC(=O)c3ccco3)c2)cc1, which Potency is on record?
**A.** inactive

**Q.** With O=C(CCC1CCCCC1)NCCN1C2=NC[C@H](Cc3ccccc3)N2C[C@H]1Cc1ccc(O)cc1 as the compound, how does the Potency read?
**A.** inconclusive: 25.1 µM [inhibitor, partial curve, poor fit]

**Q.** For Nc1cc(C(=O)O)c(N)c2c1C(=O)c1ccccc1C2=O, which Potency is on record?
**A.** inconclusive: 11.2 µM [inhibitor, partial curve]

**Q.** With Cn1cnc([N+](=O)[O-])c1S(=O)(=O)Oc1cccc2ccccc12 as the compound, how does the Potency read?
**A.** inconclusive: 39.8 µM [inhibitor, single point]

**Q.** Which Potency does the source give for CCN(CC)CCOc1ccc2c(c1)C(=NNC(=O)c1ccccn1)c1cc(OCCN(CC)CC)ccc1-2 here?
**A.** inconclusive: 39.8 µM [inhibitor, single point]

**Q.** With CCCCn1nnnc1C(c1cc2ccccc2o1)N(CCN(C)C)Cc1ccccc1 (stereo unspecified) as the compound, how does the Potency read?
**A.** active: 31.6 µM

**Q.** With O=C(c1ccc(Cl)c([N+](=O)[O-])c1)N1CCN(Cc2ccc3c(c2)OCO3)CC1 as the compound, how does the Potency read?
**A.** inconclusive: 0.752 µM [inhibitor, full curve, poor fit]

**Q.** Which Potency does the source give for CCOCCc1nnc(NC(=O)C(=O)c2cc(C)n(-c3cccc(Cl)c3)c2C)s1 here?
**A.** inactive

**Q.** For CC[C@H](C)[C@H]1CNC(=S)N1CC1CCN(CCC(C)(C)C)CC1, which Potency is on record?
**A.** inactive

**Q.** For O=C(COc1ccccc1F)Nc1ccc(Cl)c(-c2nc3ccccc3[nH]2)c1, which Potency is on record?
**A.** inconclusive: 39.8 µM [inhibitor, single point]

**Q.** With CCOC(=O)C1=C(C)NC(=S)NC1c1cccc(O)c1 (stereo unspecified) as the compound, how does the Potency read?
**A.** inconclusive: 0.544 µM [inhibitor, partial curve, poor fit]

**Q.** For N#Cc1c(N)n(C2OC(CO)C(O)C2O)c2ncnc(N)c12 (stereo unspecified), which Potency is on record?
**A.** active: 0.299 µM

**Q.** For C=CCC[C@@H](Cc1ccc(F)cc1)C(=O)OC[C@@H](Cc1c[nH]c2ccccc12)NC(=O)[C@@H](CC=C)CC(=O)N(CCO)Cc1ccccc1, which Potency is on record?
**A.** inconclusive: 28.2 µM [inhibitor, single point]

**Q.** With CCOc1ccc(NC(=O)Cn2cc(C(=O)c3ccc(CC)cc3)c(=O)c3ccc(C)nc32)cc1 as the compound, how does the Potency read?
**A.** inactive

**Q.** Which Potency does the source give for CC1=C(C(=O)OC(C)C)C(c2ccc(N(C)C)cc2)C2=C(CC(C)(C)CC2=O)N1 (stereo unspecified) here?
**A.** inconclusive: 31.6 µM [inhibitor, partial curve, poor fit]

**Q.** For COc1ccc(/C=C/C(=O)Nc2ccc3nc(N4CCCCC4)cc(C)c3c2)cc1OC, which Potency is on record?
**A.** inconclusive: 25.1 µM [inhibitor, single point]

**Q.** For COc1ccc(C(=O)NC(=S)NNC(=O)c2c(-c3ccccc3)noc2C)cc1OC, which Potency is on record?
**A.** inconclusive: 17.8 µM [inhibitor, partial curve, poor fit]
